Sequences with one replicate were seen in a single cluster, so their values are uncertain.
Tested on: ATP
Test: switch fluorescence ratio, 500 uM ATP over buffer (Cy3 cluster intensity, sum of 5 cycles each) (fold (ratio)); higher = stronger signal-on switching upon ATP binding; sequences stand for … in TCGTCGGCAGCGTCAGATGTGTATAAGAGACAGTTTTTTTTTTTTTTTTTTTTTTTTT…TC
Conditions: aptamer strand: ATP DNA aptamer (quencher-CACCTGGGGGAGTATTGCGGAGGAAGG + anchor), 100 nM annealed; ATP concentration: 500 uM; one replicate
In short: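 The fluorescence ratio divides summed target-cycle Cy3 intensity by summed buffer-cycle Cy3 intensity for each cluster and is averaged per switch-domain sequence. Cy3-labelled switching-strand clusters on a modified Illumina MiSeq flow-cell were annealed to 100 nM quencher-labelled ATP aptamer, then imaged in selection buffer and again after 15 min with 500 uM ATP at 22 °C. Five such cycles were run, with NaOH stripping and re-annealing between them, and clusters outside 100-1000 RFU were excluded.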
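Note: ATP exposure 15 min at 22 °C before imaging.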

Row | Sequence | switch fluorescence ratio
1 | TTCATAACTC | 1.05
2 | ATTCGACCGC | 1.44
3 | AGCCGGATCT | 0.952
4 | GATAGACGGG | 0.985
5 | TTGACCGGCA | 1.02
6 | GTAGCGAATT | 1.17
7 | AGAACTAA | 0.987
8 | CTAATGAGGA | 0.977
9 | GCTTATCTTA | 1.01
10 | GGTGCGGATC | 0.967
11 | CTGCGGCTAA | 1.08
12 | TAGGAAGGT | 1.08
13 | CTCGATTTGA | 0.985
14 | TGAGGTGAGC | 0.992
15 | TATGGTCATC | 1.03
16 | TTATTCTGAT | 0.98
17 | CCTGCTCAAG | 1.36
18 | CGGCTAATTG | 1.04
19 | ATCGAAGAAT | 1.03
20 | CGAGTCAACG | 1.05
21 | TCCCAACACC | 3.46
22 | TGCTTATTGC | 1
23 | ATGTACGGT | 1.04

Row | Sequence | switch fluorescence ratio
24 | TTCGTTGTCT | 1.01
25 | TGGTAAGAGT | 1.02
26 | AAGTATTTT | 1.02
27 | GGAGAAAGTT | 0.982
28 | TTATGCTGCA | 0.981
29 | CATCCGTTCC | 2.44
30 | CGTGAAACCT | 1.01
31 | GGGAGCTCGG | 1.01
32 | GAAGATATGG | 0.993
33 | CGTGTGCACT | 1.02
34 | AATTCACGT | 1
35 | GCCGCCCCCG | 1.03
36 | CCTGTATGCT | 1.05
37 | TCGGGTGGGT | 1.03
38 | GAGTTAGGTA | 0.989
39 | GCGCGCTATG | 1.02
40 | AGGTAAGGTG | 1.2
41 | CACTGTAAGC | 1.09
42 | TGTCGACAGG | 0.95
43 | ACGTACCTCC | 1.49
44 | TATGCACCGA | 1.09
45 | AGGTATAAGA | 0.994
46 | TGTCTTCGCA | 1.05

Row | Sequence | switch fluorescence ratio
47 | CTTTGCACGG | 1.08
48 | GTGGACTGAA | 0.982
49 | GCAGCTAAAC | 3.86
50 | TTACACGGCA | 1.09
51 | ATGGGTCCAT | 1.02
52 | ATACGCGCTT | 1.02
53 | TTTGGGGTGA | 0.918
54 | GTTACTTCAT | 1.01
55 | CGGGTTGTTC | 1.04
56 | AAACCTTAGA | 1.04
57 | GGTCTCTATT | 0.952
58 | ATGAGCGGG | 1.03
59 | TTAATCCACC | 1.22
60 | CGCGTACCTT | 1.06
61 | TGCGATGGGA | 1.01
62 | TACAAGTTCG | 0.998
63 | TCGTTGCAGC | 0.999
64 | CCGGTTGCCT | 1
65 | GAAGATTATT | 1.01
66 | ACTGTCTTAT | 0.963
67 | GAATCTGTCC | 1.11
68 | TTTTCGTCGC | 1.01
69 | TCTGGAAGCT | 1.01

Row | Sequence | switch fluorescence ratio
70 | GGGTATATC | 0.936
71 | AAGTATTGGA | 1.04
72 | GCTCTCAAGT | 1.02
73 | TAATGCTCAT | 0.984
74 | TTCAGGTCTT | 0.934
75 | AGCAGGAACT | 1.02
76 | AGGACTGTGC | 1.02
77 | CGGTTCTCGT | 1.03
78 | AGGGTTTTAA | 1.01
79 | TCGAACACAG | 1.03
80 | ATGGGTAGT | 1.01
81 | CGTCCCGTTT | 0.998
82 | GTTGGCTACT | 0.982
83 | ATCGCCAACT | 0.982
84 | GAGTTAGCCT | 0.981
85 | CTCAAATTTT | 1.01
86 | GAGGACCTC | 1.1
87 | CGATACAGGG | 1.02
88 | TGGTGGGGT | 1
89 | TGCTTACTAT | 0.976
90 | CACATAGCC | 1.04
91 | GCAATAATAA | 3.18
92 | GTTGGGGACA | 1

Row | Sequence | switch fluorescence ratio
93 | TGGTCCGAGA | 1.02
94 | CGACACCTTG | 0.997
95 | AGAATTTAGG | 1.02
96 | AAGTCTATTA | 1.05
97 | GGTTAACTCT | 0.984
98 | GATCGTGAAA | 1.03
99 | CATGGTTCTT | 1
100 | AATCGAGAAT | 0.934
101 | GACATAAATA | 1.02
102 | AGTAATGGCA | 0.94
103 | GGTACAGGGT | 1.03
104 | TAATTCCACA | 1.04
105 | CGATTTGTCC | 0.997
106 | ATTCGTCCAA | 1.05
107 | ACCAGGGCGA | 1.08
108 | GTAGGTGGCG | 0.966
109 | TATGGGGATA | 1.02
110 | CATTAATCGG | 1.01
111 | CCTGTATAGT | 1.02
112 | ACCGACCGTC | 1.45
113 | GGGCCTCTGC | 1
114 | TCAGACGGTG | 1.04
115 | CGGTGCATCG | 0.979

Row | Sequence | switch fluorescence ratio
116 | GCTTTGTAAT | 1.01
117 | TTAGAAGCT | 0.855
118 | CTCCTGAGAC | 2.15
119 | AGTACTAATC | 0.987
120 | CTGTCTGAGC | 1.02
121 | TCTATTTCGG | 0.968
122 | CCTCGGGGGA | 3.02
123 | TGTCCTAGGC | 0.918
124 | AAGGCTGTAT | 0.999
125 | TTTGGAACGA | 0.948
126 | CCCTGCTGT | 1.27
127 | GAATGAACAT | 1.03
128 | GGGATCTTAG | 1.03
129 | GTAGTCAACT | 0.968
130 | AGTATTGATG | 0.984
131 | ACCGTTTTCG | 1.02
132 | ACTTCAAACC | 1.11
133 | TTCGGCCGGC | 1.02
134 | GATGACATAG | 1.03
135 | TGACTCGGGA | 1
136 | CCAGAGCCTG | 1.15
137 | CAGATAAGGG | 0.924
138 | TCTATGTCAC | 1.05

Row | Sequence | switch fluorescence ratio
139 | TACGATTGAT | 1
140 | ATCCTCATCT | 1.03
141 | TCTAAGTCAT | 0.993
142 | AAGATATTTG | 0.961
143 | GGCTTTAACG | 0.999
144 | ATGGTTGTAT | 1.01
145 | AATTCTTTTA | 0.979
146 | CGATTAGATG | 0.964
147 | TATATTCGTA | 1.01
148 | AGTCGGATTA | 0.936
149 | CTCGGGCTTG | 0.958
150 | TTGGCTTATT | 0.993
151 | GGCCCCGTTC | 1.02
152 | ACTGGTTGGT | 1.01
153 | ACAATTCGAA | 1.02
154 | ATTGCAGTCC | 1.01
155 | ACGTGTTTAA | 1.03
156 | GACATCAGGG | 0.969
157 | TTTCGTACCG | 1

Reference: the supplement of paper PMC10126150
